The list shows a part of the results. The full chains were built here from the parent and the listed change. Values near 0.05 are background.
B1: TEV protease; numbered along this chain (parent)
chain: MGESLFKGPRDYNPISSSICHLTNESDGHTTSLYGIGFGPFIITNKHLFRRNNGTLVVQSLHGVFKVKDTTTLQQHLVDGRDMIIIRMPKDFPPFPQKLKFREPQREERICLVTTNFQTKSMSSMVSDTSCTFPSGDGIFWKHWIQTKDGQCGSPLVSTRDGFIVGIHSASNFTNTNNYFTSVPKNFMELLTNQEAQQWVSGWRLNADSVLWGGHKVFMVKPEEPFQPVKEATQL

Variants of: B1
Assay: raw area under fraction-flipped curve 0-4 h after induction (AUC4h, not background-subtracted), DNA-recorder readout of cleavage of the substrate (dimensionless); higher = more cleavage of the substrate by the protease variant
Settings: temperature: 34 °C; time window: 0-4 h after rhamnose induction
Procedure: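 In vivo DNA recorder in E. coli TOP10(DE3) ΔrhaA at 34 °C. Each TEVp single-site mutant (parent TEVp 0) is paired with a single-site variant of the 7-mer TEVs (canonical ENLYFQ|S). The substrate sits between flexible linkers in a Bxb1-sfGFP-TEVs-SsrA fusion, so cleavage stabilises Bxb1 and speeds flipping of a recombination array, read by NGS. The value is the raw area under the fraction-flipped curve over 0-4 h after rhamnose induction (AUC4h), with ≥20 reads per time point. It is not background-subtracted; inactive controls average about 0.047.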
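Further: Bxb1 expression induced with 0.2% (w/v) L-rhamnose at OD600 near 0.5, cultures sampled hourly, flipped fraction per protease–substrate barcode pair counted by paired-end Illumina sequencing.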

Variant	area with substrate ANLYFQS	area with substrate CNLYFQS	area with substrate DNLYFQS	area with substrate FNLYFQS	area with substrate GNLYFQS	area with substrate HNLYFQS	area with substrate INLYFQS	area with substrate LNLYFQS	area with substrate MNLYFQS	area with substrate NNLYFQS	area with substrate PNLYFQS	area with substrate SNLYFQS	area with substrate TNLYFQS	area with substrate WNLYFQS	area with substrate YNLYFQS	area with substrate KNLYFQS	area with substrate QNLYFQS	area with substrate RNLYFQS	area with substrate VNLYFQS
F38P	0.0304	0.0414	0.0375	0.0355	0.0509	0.0413	0.0358	0.0401	0.0321	0.0503	0.0386	0.015	0.042	0.0322	0.0354	–	–	–	–
H47L	0.0492	0.0597	0.0575	0.065	0.0646	0.0681	–	0.0577	0.0513	0.0456	0.0508	0.0752	0.0655	–	0.0569	0.0652	0.051	0.0656	–
H47D	0.0636	0.0638	0.0553	–	0.0981	0.0504	0.0565	0.0654	–	0.0552	–	0.0617	0.054	0.052	0.0621	–	–	0.044	0.0617
H47K	0.0425	0.0447	0.0559	0.0607	0.0691	0.0564	0.0564	0.0572	0.0727	0.0751	0.0588	0.0531	0.0497	0.061	0.0481	0.0597	–	–	–
H47Y	0.0485	0.0578	0.0604	0.0573	–	0.0649	0.0663	–	0.0662	0.0481	0.055	0.0561	0.0567	0.0728	0.047	0.064	–	0.0674	0.0579
H47N	0.0389	0.064	0.0788	0.0643	0.06	0.0698	0.0566	–	0.0533	0.0606	0.0486	–	0.0561	0.0556	0.0569	0.0495	–	–	0.0506
H47F	0.0569	0.0564	0.0554	–	0.0511	0.0573	0.0387	0.0581	0.0583	0.0653	0.0547	–	0.0556	0.0545	0.0617	0.0589	0.0781	–	–
T44K	0.039	0.0528	0.0407	0.0467	0.0817	0.0502	0.0474	–	–	0.0433	0.0552	0.0498	–	0.0467	0.0172	0.0399	–	–	0.0467
T44W	0.0499	0.0545	0.0377	0.0538	0.0429	0.0383	0.0458	0.0463	0.0415	0.067	0.0438	0.0452	0.0484	0.0392	0.0379	0.0503	0.0458	0.0563	–
T44D	0.0368	0.0374	0.0546	0.0623	0.0485	0.0395	–	0.0392	0.071	0.0481	0.0355	0.0487	0.0363	0.0399	0.0417	0.0496	–	–	0.0322
G28C	0.0627	0.0601	0.0735	0.0601	–	0.0689	0.0401	–	–	–	0.0545	–	0.0585	0.0636	–	–	–	–	0.0653
I36R	0.0497	0.0471	0.0537	0.0403	–	0.0395	–	0.0437	–	–	0.0447	0.0495	0.0439	0.0454	–	0.0393	0.0487	–	0.0776
